Results taken from patent publication US20260139047A1 (JIANGSU HENGRUI PHARMACEUTICALS, published 2026).

T1: IL-2Rα (ILA-H52H9, Acrobiosystem) (UniProt P01589 22-213)
T1 construct: Bought soluble reagent
T1 sequence (looked up): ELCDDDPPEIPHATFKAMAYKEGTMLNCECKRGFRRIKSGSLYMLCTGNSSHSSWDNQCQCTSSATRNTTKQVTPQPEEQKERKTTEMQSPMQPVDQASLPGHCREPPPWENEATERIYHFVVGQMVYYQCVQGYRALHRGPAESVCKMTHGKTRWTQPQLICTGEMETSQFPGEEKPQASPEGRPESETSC

T2: IL-2Rβ (CD2-H5221, Acrobiosystem) (UniProt P14784 27-239)
T2 construct: Bought soluble reagent
T2 sequence (looked up): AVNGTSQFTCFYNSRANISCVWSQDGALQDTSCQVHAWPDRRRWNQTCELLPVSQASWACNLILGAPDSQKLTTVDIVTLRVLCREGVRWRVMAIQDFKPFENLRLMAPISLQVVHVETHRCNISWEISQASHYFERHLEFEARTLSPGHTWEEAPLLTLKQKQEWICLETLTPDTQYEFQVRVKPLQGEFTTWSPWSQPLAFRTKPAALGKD

B1: D3-68-b (other)
heavy: QVQLVQSGPEVKKPGASVKVSCKASGYTFTSYGISWVRRAPGQGLEWMGWISAYNGNTNYAQKLQGRVTMTTDTSTSTAYMELRSLRSDDTAVYYCARDLQSPTYYYGSGVIDYWGQGTLVTVSS[human IgG1 constant region with changes not listed]
light: [about 150 residues not listed]GGGGSGGGGSGGGGSGGGGSGGGGSDIQLTQSPSTLSASVGDRVTISCRASRAVSPWLAWYQHRPGQAPKLLIYAASSLQSGVPSRFSGSGSGTDFTLTISSLQPEDFATYYCQQYRSYPFTFGPGTTVDIRRTVAAPSVFIFPPSDEQLKSGTASVVCLLNNFYPREAKVQWKVDNALQSGNSQESVTEQDSKDSTYSLSSTLTLSKADYEKHKVYACEVTHQGLSSPVTKSFNRGEC
B2: A3-21-a (other)
heavy: [about 150 residues not listed]GGGGSGGGGSGGGGSGGGGSGGGGSEVQLLESGGGLAQPGGSLRLSCAGSGFTFSSYAMSWVRQAPGKGLEWVSGITGTGYRTYYADSVKGRFTVSRDNSRNTVYLQMNSLRAEDTAVYYCVRESGHYYGWFDSWGQGTLVTVSS[human IgG1 constant region with changes not listed]
light: QSALTQPPSVSGAPGQRVTISCTGSSSNIGAGYNVHWYQQVPGTVPKLLIDGKGNRPSGVPDRFSGSKSGTSASLAITGLQAEDEADYYCQSYDYMLSGSVVFGRGTKLTVLGQPKANPTVTLFPPSSEELQANKATLVCLISDFYPGAVTVAWKADGSPVKAGVETTKPSKQSNNKYAASSYLSLTPEQWKSHRSYSCQVTHEGSTVEKTVAPTECS

What was measured:
[1] = target: T1, IL-2Rα (ILA-H52H9, Acrobiosystem); experiment: Octet (BLI), fusion protein on Protein A sensor, IL-2Rα in solution
[2] = target: T2, IL-2Rβ (CD2-H5221, Acrobiosystem); experiment: Octet (BLI), steady-state fit, fusion protein stationary, IL-2Rβ mobile

Row | Binder | binding result [1] | Kd [2] [pM]
1 | B1 | no binding (tested: 100 nM-3.125 nM) | 0.0011
2 | B2 | no binding (tested: 100 nM-3.125 nM) | –
